Experimental data as given in publication PMC3907550.
Results are given in words; binding and its absence hold for the method and conditions named. For some of these results: Binding seen in cells or lysates may run through a third protein. Some entries that bind do so weakly or less than the wild type. Tags and fused reporters may be left off the sequences shown. Blank lines part the entries; values can stand above or below the binder they belong to.

Chains of the proteins cited; added tags and fusions are not shown.
UniProt Q9LZG0: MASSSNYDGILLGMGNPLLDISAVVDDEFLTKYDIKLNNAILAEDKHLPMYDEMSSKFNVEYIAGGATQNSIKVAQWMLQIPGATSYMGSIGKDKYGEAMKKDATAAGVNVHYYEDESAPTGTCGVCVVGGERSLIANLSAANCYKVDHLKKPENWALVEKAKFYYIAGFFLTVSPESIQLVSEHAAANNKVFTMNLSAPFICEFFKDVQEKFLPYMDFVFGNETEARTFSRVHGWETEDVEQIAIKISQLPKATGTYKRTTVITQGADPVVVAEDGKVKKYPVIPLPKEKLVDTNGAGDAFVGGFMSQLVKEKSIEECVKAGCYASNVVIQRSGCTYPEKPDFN
UniProt P84634: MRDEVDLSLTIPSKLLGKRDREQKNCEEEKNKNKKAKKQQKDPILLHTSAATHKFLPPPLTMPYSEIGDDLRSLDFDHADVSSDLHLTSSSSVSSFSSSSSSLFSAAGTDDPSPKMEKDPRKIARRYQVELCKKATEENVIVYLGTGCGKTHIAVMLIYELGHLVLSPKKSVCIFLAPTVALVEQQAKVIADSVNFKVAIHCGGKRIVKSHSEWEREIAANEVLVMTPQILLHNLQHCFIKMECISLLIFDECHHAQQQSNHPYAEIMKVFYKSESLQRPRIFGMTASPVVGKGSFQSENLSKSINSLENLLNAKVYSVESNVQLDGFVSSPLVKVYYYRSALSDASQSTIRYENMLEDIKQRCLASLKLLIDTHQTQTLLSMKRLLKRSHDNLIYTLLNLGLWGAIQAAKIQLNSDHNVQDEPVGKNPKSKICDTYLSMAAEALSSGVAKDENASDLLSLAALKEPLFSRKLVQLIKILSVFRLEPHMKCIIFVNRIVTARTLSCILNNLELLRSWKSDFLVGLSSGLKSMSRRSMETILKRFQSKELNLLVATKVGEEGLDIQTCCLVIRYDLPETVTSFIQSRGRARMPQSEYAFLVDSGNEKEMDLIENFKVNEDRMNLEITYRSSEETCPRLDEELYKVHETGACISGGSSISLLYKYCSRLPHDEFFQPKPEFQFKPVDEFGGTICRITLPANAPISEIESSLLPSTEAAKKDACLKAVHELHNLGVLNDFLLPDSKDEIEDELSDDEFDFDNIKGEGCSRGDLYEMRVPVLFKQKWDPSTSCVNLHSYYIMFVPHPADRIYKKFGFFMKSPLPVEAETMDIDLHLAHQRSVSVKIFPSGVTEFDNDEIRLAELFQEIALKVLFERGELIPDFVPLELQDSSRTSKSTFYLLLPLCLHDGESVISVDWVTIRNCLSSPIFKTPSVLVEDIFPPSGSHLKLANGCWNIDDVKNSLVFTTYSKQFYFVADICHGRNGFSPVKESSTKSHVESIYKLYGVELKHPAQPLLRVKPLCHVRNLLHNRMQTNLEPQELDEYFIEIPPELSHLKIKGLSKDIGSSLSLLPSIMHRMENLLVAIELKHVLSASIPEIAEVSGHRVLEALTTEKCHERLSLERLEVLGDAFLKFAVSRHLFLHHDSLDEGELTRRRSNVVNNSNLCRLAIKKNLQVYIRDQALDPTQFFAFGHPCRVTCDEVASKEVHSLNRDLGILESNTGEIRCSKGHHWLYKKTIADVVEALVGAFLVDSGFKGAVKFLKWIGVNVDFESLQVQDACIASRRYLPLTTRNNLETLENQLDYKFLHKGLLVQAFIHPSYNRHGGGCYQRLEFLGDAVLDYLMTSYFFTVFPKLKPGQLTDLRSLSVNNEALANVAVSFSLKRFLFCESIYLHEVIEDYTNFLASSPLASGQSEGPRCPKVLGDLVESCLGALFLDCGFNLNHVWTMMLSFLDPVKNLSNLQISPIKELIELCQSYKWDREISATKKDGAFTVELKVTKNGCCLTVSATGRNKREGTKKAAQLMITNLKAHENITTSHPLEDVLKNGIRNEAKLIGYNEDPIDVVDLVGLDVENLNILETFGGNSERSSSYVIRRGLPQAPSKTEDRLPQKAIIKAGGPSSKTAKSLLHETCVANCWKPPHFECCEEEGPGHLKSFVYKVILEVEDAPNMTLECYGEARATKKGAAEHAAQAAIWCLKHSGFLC

What was measured:
[1] = target: Adenosine kinase 2 (ADK2), yeast two-hybrid fusion (Arabidopsis) (UniProt Q9LZG0); assay: two-hybrid; baits as GAL4 DNA binding domain fusions, preys as GAL4 activation domain fusions, yeast Y190; growth on medium lacking histidine with 50 mM aminotriazole; LacZ filter-lift assay
[2] = target: Adenosine kinase 2 (ADK2), full-length, fused to the N- or C-terminal portion of YFP (BiFC) (Arabidopsis) (UniProt Q9LZG0); assay: split reporter; BiFC of YFP (YN + YC fusions) in N. benthamiana leaf epidermal cells, agroinfiltration, confocal microscopy 48 h post-infiltration
[3] = target: Dicer-like 4 (DCL4), full-length, fused to the N- or C-terminal portion of YFP (BiFC) (UniProt P84634); assay: as above

binding [1]: binds
B1: SnRK1.2 (SNF1-related kinase 1), full-length, yeast two-hybrid fusion (enzyme, UniProt P92958 1-512)
chain: MDHSSNRFGNNGVESILPNYKLGKTLGIGSFGKVKIAEHVVTGHKVAIKILNRRKIKNMEMEEKVRREIKILRLFMHPHIIRQYEVIETTSDIYVVMEYVKSGELFDYIVEKGRLQEDEARNFFQQIISGVEYCHRNMVVHRDLKPENLLLDSRCNIKIADFGLSNVMRDGHFLKTSCGSPNYAAPEVISGKLYAGPEVDVWSCGVILYALLCGTLPFDDENIPNLFKKIKGGIYTLPSHLSSEARDLIPRMLIVDPVKRITIPEIRQHRWFQTHLPRYLAVSPPDTVEQAKKINEEIVQEVVNMGFDRNQVLESLRNRTQNDATVTYYLLLDNRFRVPSGYLESEFQETTDSGSNPMRTPEAGASPVGHWIPAHVDHYGLGARSQVPVDRKWALGLQSHAHPREIMNEVLKALQELNVCWKKIGHYNMKCRWVPGLADGQNTMVNNQLHFRDESSIIEDDCAMTSPTVIKFELQLYKAREEKYLLDIQRVNGPQFLFLDLCAAFLTELRVI

binding [2]: binds
binding [3]: no binding
B2: SnRK1.2, full-length, fused to the N- or C-terminal portion of YFP (BiFC) (enzyme, UniProt P92958 1-512)
chain: B1 chain

binding [1]: binds
B3: SnRK1.2 kinase domain (SnRK1-KD; amino acids 1-343), yeast two-hybrid fusion (domain or fragment, UniProt P92958 1-343)
chain: MDHSSNRFGNNGVESILPNYKLGKTLGIGSFGKVKIAEHVVTGHKVAIKILNRRKIKNMEMEEKVRREIKILRLFMHPHIIRQYEVIETTSDIYVVMEYVKSGELFDYIVEKGRLQEDEARNFFQQIISGVEYCHRNMVVHRDLKPENLLLDSRCNIKIADFGLSNVMRDGHFLKTSCGSPNYAAPEVISGKLYAGPEVDVWSCGVILYALLCGTLPFDDENIPNLFKKIKGGIYTLPSHLSSEARDLIPRMLIVDPVKRITIPEIRQHRWFQTHLPRYLAVSPPDTVEQAKKINEEIVQEVVNMGFDRNQVLESLRNRTQNDATVTYYLLLDNRFRVPSGYL
